Data on 62 molecules can be found in PubChem BioAssay AID485344 (National Center for Advancing Translational Sciences (NCATS), 2010).

“And” between values parts separate entries of the source, which are not always exact repeats. Equal values may be shown once. Hit rate of the full screen: of about 340,000 compounds, about 6,900 (2%) were called active. Rule as the data show it: active = inhibition above about 30%; inactive = below that, where a call was filed. Only a part is listed here, and it is no random draw. Where no call is shown, the source filed none.

In the experiment the target is D(2) dopamine receptor (Homo sapiens) (UniProt P14416). Kind of experiment: HTS Assay for Allosteric Antagonists of the Human D2 Dopamine Receptor: Primary Screen for Antagonists. Also: 0% is about no effect. Conditions: HEK293 TREx D2 cells, calcium flux, dopamine EC80; at 10 µM; stronger effect = higher value. The essentials: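 In this primary screen, negative modulation is detected by tracking calcium flux after an EC80 dopamine challenge in inducible HEK293 T-REx D2 cells preexposed to test compound for 180 s.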
Sequence of UniProt P14416 (P14416 whole entry, looked up): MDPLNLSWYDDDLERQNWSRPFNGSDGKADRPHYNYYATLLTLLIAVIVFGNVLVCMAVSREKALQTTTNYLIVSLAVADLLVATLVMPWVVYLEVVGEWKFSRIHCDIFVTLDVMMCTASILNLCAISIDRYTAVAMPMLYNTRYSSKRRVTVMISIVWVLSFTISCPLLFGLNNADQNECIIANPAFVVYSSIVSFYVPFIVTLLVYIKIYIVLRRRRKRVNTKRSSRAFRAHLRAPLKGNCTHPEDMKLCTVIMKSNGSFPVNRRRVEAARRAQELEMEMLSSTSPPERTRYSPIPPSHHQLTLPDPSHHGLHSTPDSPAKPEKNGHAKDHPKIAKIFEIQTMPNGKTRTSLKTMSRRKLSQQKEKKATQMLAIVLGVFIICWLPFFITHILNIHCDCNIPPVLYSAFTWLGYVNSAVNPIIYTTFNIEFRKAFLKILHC
On the technique in general: Calcium flux is commonly read through the fluorescence of an indicator in the cells.
As usually defined, the inhibition is the drop in the measured response relative to a control, in per cent. As for `COc1ccccc1C1Nc2ccccc2-n2c(-c3ccccc3)c3c(=O)n(C)c(=O)n(C)c3c21` (configuration not stated), the inhibition was found to be 7%.

Regarding `Cc1ccccc1CCNC(=O)c1ccc2c(c1)nc1n2CCC(C)C1` (configuration not stated), the inhibition was -0.0336%.

Take `CC(=O)Nc1ccc2nc3c(=O)[nH]c(=O)[nH]c3nc2c1`: the inhibition is 20.1%.

In the case of `Cc1ccc(NC(=O)CSc2ccc(-c3cccs3)nn2)cc1Cl`, the inhibition came out at 21.6%.

On to `COCC(=O)NCc1nc2cccnc2n1Cc1ccc(F)cc1`, for which the inhibition was -1.79%.

Turning to `COc1ccc(Nc2cc(C(=O)NCCCN3CCN(c4ccc(OC)cc4)CC3)c3ccccc3n2)cc1`, the inhibition is 6.57%.

With `Cc1ccc(NC(=S)NC2CC3CCCC(C2)N3Cc2cccs2)cc1` (configuration not stated), the inhibition is active: 71.9%.

`O=C(CCn1cnnn1)Nc1ccc(F)cc1`: the inhibition was 18.1% and active: 31.9%.

`Cc1ccc(S(=O)(=O)N(C)C)cc1NC(=S)NC(C)CCC(C)C` (configuration not stated): the inhibition is active: 77.4%.

On to `COc1cccc(S(=O)(=O)NCc2ccc(C(=O)N3CCN(c4ccccc4)CC3)cc2)c1`, for which the inhibition is active: 56.4%.

Consider `Cc1oc(C)c2c(=O)cc(-c3ccc4c(c3)OCO4)cc(OC(=O)c3cccc(Br)c3)c12`, for which the inhibition is -2.28%.

With `O=C(NCc1ccc(Cl)cc1)C(=O)NCC(c1cccs1)S(=O)(=O)c1cccs1` (configuration not stated), the inhibition came out at 10.5%.

With `CCOC(=O)c1ccccc1NC(=O)Cn1c(=O)n(-c2cccc(C)c2)c(=O)c2c1c1cc(C)ccc1n2C`, the inhibition amounted to 0.104%.

For the molecule `COc1ccc2c(C)cc(SCC(=O)Nc3nsc(-c4ccccc4C)n3)nc2c1`, the inhibition was 6.1%.

Turning to `COc1cccc(N2CCN(S(=O)(=O)c3ccc(-n4cnnn4)cc3)CC2)c1`, the inhibition was -16.9%.

For the molecule `CCOc1ccc(Cn2c(CNS(=O)(=O)c3ccc(Cl)s3)nc3cccnc32)cc1`, the inhibition was determined as 14.1%.

Turning to `COc1cc(C2C(C(=O)Nc3ccccc3C)=C(C)Nc3ncnn32)ccc1OCC(N)=O` (configuration not stated), the inhibition turned out to be 9.46%.

For the molecule `O=C(NCC(c1ccc2c(c1)OCO2)N1CCOCC1)c1cccc(Cl)c1` (configuration not stated), the inhibition is -4.82%.

On to `O=C(Cn1c(=O)nc(-c2ccccc2)c2ccccc21)NCc1ccc(Cl)cc1`, for which the inhibition was determined as 8.06%.

Regarding `CCc1ccc(NC(=O)CCn2nc(C)c(S(=O)(=O)N3CCCCC3)c2C)cc1`, the inhibition was 1.51%.

With `c1ccc(-c2ncnc3nc4n(c23)CCC4)cc1`, the inhibition was active: 33.7%.

Consider `Cc1cc(C)cc(NC(=O)C(=O)NCC(c2cccnc2)N2CCc3ccccc3C2)c1` (configuration not stated), for which the inhibition is 21.7%.

Consider `CC(NCC(O)COc1ccccc1)C1COc2ccccc2O1` (configuration not stated), for which the inhibition was active: 64.1%.

On to `CCCCNC(=O)C1CCC(Cn2c(=O)c3sccc3n(CC(=O)N3CCCC3)c2=O)CC1` (configuration not stated), for which the inhibition is -6.75%.

With `O=C(Nc1cc(C(F)(F)F)ccc1Cl)c1nc2ccccc2nc1N1CCCCC1`, the inhibition was -5.9%.

Consider `COC(=O)c1cccnc1-n1c(=O)c2cccnc2n(CC(=O)Nc2ccccc2F)c1=O`, for which the inhibition was -2.71%.

Turning to `O=C(CSc1nncn2c1cc1sccc12)Nc1ccc(Br)cc1F`, the inhibition amounted to 9.6%.

Regarding `CCOC(=O)c1c(C)oc2nc(C)nc(NCc3ccc(OC)cc3OC)c12`, the inhibition was -23.3%.

As to `CCc1ccccc1NC(=O)c1sc2nc3c(cc2c1N)CN(Cc1ccccc1)CC3`, the inhibition was -1.24%.

Regarding `O=C(Nc1nc2n(n1)C(c1ccc(F)cc1)C=C(c1ccccc1)N2)c1ccc(Cl)cc1` (configuration not stated), the inhibition was 5.63%.

With `Cc1ccc(NC(=O)C(Cc2ccccc2)NS(=O)(=O)c2ccc3c(c2)oc(=O)n3C)cc1F` (configuration not stated), the inhibition is -7.18%.

For `COc1ccc2c(c1)CCc1c-2n[nH]c1C(=O)O`, the inhibition is active: 31.4%.

Take `Cc1ccc(NC(=O)c2cc3cc(C)ccc3n2C)cc1`: the inhibition was -4.4%.

As to `NC(=O)CSc1oc(-c2ccco2)nc1S(=O)(=O)c1ccc(Cl)cc1`, the inhibition is 0.412%.

Consider `OCCN1CCN(CC/C=C2/c3ccccc3Sc3ccc(C(F)(F)F)cc32)CC1`, for which the inhibition was active: 82.9%.

On to `CCCc1cnc2c(c1SCC(=O)N1CCC(C)CC1)c(=O)n(C)c(=O)n2C`, for which the inhibition was -2.52%.

Take `Cc1nn(Cc2ccccc2Cl)c(C)c1NC(=O)c1cc(C(C)C)on1`: the inhibition is -16%.

Turning to `CCC1CCCCN1C(=O)Cn1c(=O)oc2cc(S(=O)(=O)N3CCCCC3)ccc21` (configuration not stated), the inhibition was found to be 6.35%.

Regarding `CC(C)[C@H](CO)Nc1nc(Nc2ccc(Cl)c(C(=O)O)c2)c2ncn(C(C)C)c2n1`, the inhibition was active: 38.8%.

Take `COc1ccc(F)cc1C(=O)C1CCCN(Cc2cn(C)c3ccccc23)C1` (configuration not stated): the inhibition was active: 78.1%.

With `CCCN1C(=O)c2[nH]nc(-c3ccccc3O)c2C1c1ccc(OCc2ccccc2)c(OC)c1` (configuration not stated), the inhibition worked out at 6.59%.

Regarding `COC(=O)Cn1nc(C)c2c(C)n(-c3ccccc3)nc2c1=O`, the inhibition is -3.57%.

Turning to `COc1cccc2c1cc1c(=O)n(CC(=O)NC3CCCCC3)nc(C)n12`, the inhibition was -9.17%.

Regarding `COc1cc(C(=O)N2CCN(c3ccc(Nc4ccc(C)cc4)nn3)CC2)cc(OC)c1OC`, the inhibition is -21.9%.

On to `Cc1ccc(C(=O)Nc2cccc(OCc3cc(=O)n4c5c(sc4n3)CCCC5)c2)cc1`, for which the inhibition came out at 7.82%.

For the molecule `CCCc1cc(=O)oc2c3c(ccc12)OCN(Cc1ccc(OC)cc1)C3`, the inhibition was determined as 11.9%.

On to `CCn1c(C(=O)NCc2ccccc2C)cc2oc3ccccc3c21`, for which the inhibition is -4.69%.

Take `COC(=O)c1ccccc1NC(=O)c1ncoc1-c1ccco1`: the inhibition was 6.64%.

Take `Cc1ccccc1OCCSc1nc2ccc(NC(=O)c3ccccc3)cc2s1`: the inhibition was -2.07%.

In the case of `CNC(=O)C1CCC(Cn2c(=O)c3sccc3n(Cc3ccc(F)cc3)c2=O)CC1` (configuration not stated), the inhibition came out at 6.76%.

With `CC(=O)N1CCCc2cc(S(=O)(=O)N3CCC(C(=O)NC4CCC(C)CC4)CC3)ccc21` (configuration not stated), the inhibition amounted to 14.2%.

`CCOc1ccc(C2/C(=C(/O)c3ccc(Cl)cc3)C(=O)C(=O)N2CCCN(C)C)cc1OC` (configuration not stated): the inhibition is active: 45.2%.

Regarding `CC1(C(=O)Nc2cccc(Br)c2)Cc2ccccc2C(=O)O1` (configuration not stated), the inhibition is -8.74%.

For `CCc1ccc(NC(=O)CSc2nccn2-c2ccc(OC)cc2)cc1`, the inhibition is 11.2%.

Take `COCCCNC(=O)CCC(=O)N1Cc2cccc(OC)c2Oc2ncccc21`: the inhibition amounted to 6.52%.

Turning to `COc1cc2c(cc1OC)C(COc1ccc3c(C)cc(=O)oc3c1)N(C(=O)c1cccc(C)c1)CC2` (configuration not stated), the inhibition came out at 9.9%.

As to `COc1ccc(Cn2ccn(Cc3cccc(C)c3)c(=O)c2=O)cc1`, the inhibition stood at 4.66%.

For `CCOc1ccc(-n2c(SCC(=O)NCC3CCCO3)nc3c([nH]c4ccccc43)c2=O)cc1` (configuration not stated), the inhibition turned out to be 0.12%.

Take `O=C(NCCc1ccccc1)c1ccc2c(c1)N(Cc1c(F)cccc1Cl)C(=O)CS2`: the inhibition is 14.4%.

Consider `Cn1c(=O)c(=O)n(C)c2cc(S(=O)(=O)N3CCCC3C(=O)Nc3ccccc3F)ccc21` (configuration not stated), for which the inhibition was -15%.

Regarding `COc1ccc(NC(=O)CSc2nncn3c2cc2oc(C)cc23)cc1OC`, the inhibition was -0.714%.

In the case of `Cc1ccc(CCNC(=O)C(NS(=O)(=O)c2ccc3c(c2)oc(=O)n3C)C(C)C)cc1` (configuration not stated), the inhibition is -8.32%.
